Laboratory results taken from the supplement of paper PMC8728848.
Some of the results follow.

Assays:
Assay in all cases: glycan array binding signal (z-score within array); higher = stronger binding
Settings in all cases: glycan notation: IUPAC condensed, linker removed
[1] = target: Fuc(a1-2)Gal6S(b1-3)GlcNAc
Method in brief: (§1)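 From the Consortium for Functional Glycomics database, 3228 arrays were curated, keeping only those whose protein sequence was available. Binding is given as a within-array Z-score averaged across arrays sharing a protein sequence and across linkers. Negative Z-scores can be read as non-binding.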

[2] = target: Fuc(a1-2)Gal6S(b1-3)GlcNAc6S
Method in brief: as §1

[3] = target: Fuc(a1-2)Gal6S(b1-4)Glc
Method in brief: as §1

[4] = target: Fuc(a1-2)Gal6S(b1-4)Glc6S
Method in brief: as §1

[5] = target: Fuc(a1-2)[Gal(a1-3)]Gal
Method in brief: as §1

[6] = target: Fuc(a1-2)[Gal(a1-3)]Gal(b1-3)GalNAc
Method in brief: as §1

[7] = target: Fuc(a1-2)[Gal(a1-3)]Gal(b1-3)GalNAc(b1-3)Gal(a1-4)Gal(b1-4)Glc
Method in brief: as §1

[8] = target: Fuc(a1-2)[Gal(a1-3)]Gal(b1-3)GlcNAc
Method in brief: as §1

[9] = target: Fuc(a1-2)[Gal(a1-3)]Gal(b1-3)GlcNAc(b1-2)Man(a1-3)[Fuc(a1-2)[Gal(a1-3)]Gal(b1-3)GlcNAc(b1-2)Man(a1-6)]Man(b1-4)GlcNAc(b1-4)GlcNAc
Method in brief: as §1

[10] = target: Fuc(a1-2)[Gal(a1-3)]Gal(b1-3)GlcNAc(b1-2)Man(a1-3)[Fuc(a1-2)[Gal(a1-3)]Gal(b1-3)GlcNAc(b1-2)Man(a1-6)]Man(b1-4)GlcNAc(b1-4)[Fuc(a1-6)]GlcNAc
Method in brief: as §1

[11] = target: Fuc(a1-2)[Gal(a1-3)]Gal(b1-3)GlcNAc(b1-3)GalNAc
Method in brief: as §1

[12] = target: Fuc(a1-2)[Gal(a1-3)]Gal(b1-3)GlcNAc(b1-6)GalNAc
Method in brief: as §1

[13] = target: Fuc(a1-2)[Gal(a1-3)]Gal(b1-4)Glc
Method in brief: as §1

[14] = target: Fuc(a1-2)[Gal(a1-3)]Gal(b1-4)GlcNAc
Method in brief: as §1

[15] = target: Fuc(a1-2)[Gal(a1-3)]Gal(b1-4)GlcNAc(b1-2)Man
Method in brief: as §1

[16] = target: Fuc(a1-2)[Gal(a1-3)]Gal(b1-4)GlcNAc(b1-2)Man(a1-3)[Fuc(a1-2)[Gal(a1-3)]Gal(b1-4)GlcNAc(b1-2)Man(a1-6)]Man(b1-4)GlcNAc(b1-4)GlcNAc
Method in brief: as §1

[17] = target: Fuc(a1-2)[Gal(a1-3)]Gal(b1-4)GlcNAc(b1-2)Man(a1-3)[Fuc(a1-2)[Gal(a1-3)]Gal(b1-4)GlcNAc(b1-2)Man(a1-6)]Man(b1-4)GlcNAc(b1-4)[Fuc(a1-6)]GlcNAc
Method in brief: as §1

[18] = target: Fuc(a1-2)[Gal(a1-3)]Gal(b1-4)GlcNAc(b1-3)GalNAc
Method in brief: as §1

[19] = target: Fuc(a1-2)[Gal(a1-3)]Gal(b1-4)GlcNAc(b1-3)[Fuc(a1-2)[Gal(a1-3)]Gal(b1-4)GlcNAc(b1-6)]GalNAc
Method in brief: as §1

[20] = target: Fuc(a1-2)[Gal(a1-3)]Gal(b1-4)GlcNAc(b1-6)GalNAc
Method in brief: as §1

[21] = target: Fuc(a1-2)[Gal(a1-3)]Gal(b1-4)[Fuc(a1-3)]Glc
Method in brief: as §1

[22] = target: Fuc(a1-2)[Gal(a1-3)]Gal(b1-4)[Fuc(a1-3)]GlcNAc
Method in brief: as §1

[23] = target: Fuc(a1-2)[Gal(a1-3)]Gal(b1-4)[Fuc(a1-3)]GlcNAc(b1-3)GalNAc
Method in brief: as §1

[24] = target: Fuc(a1-2)[Gal(a1-4)]Gal(b1-4)GlcNAc
Method in brief: as §1

[25] = target: Fuc(a1-2)[GalNAc(a1-3)]Gal
Method in brief: as §1

[26] = target: Fuc(a1-2)[GalNAc(a1-3)]Gal(b1-3)GalNAc(a1-3)[Fuc(a1-2)]Gal(b1-4)GlcNAc
Method in brief: as §1

[27] = target: Fuc(a1-2)[GalNAc(a1-3)]Gal(b1-3)GalNAc(b1-3)Gal(a1-4)Gal(b1-4)Glc
Method in brief: as §1

[28] = target: Fuc(a1-2)[GalNAc(a1-3)]Gal(b1-3)GlcNAc
Method in brief: as §1

[29] = target: Fuc(a1-2)[GalNAc(a1-3)]Gal(b1-3)GlcNAc(b1-2)Man(a1-3)[Fuc(a1-2)[GalNAc(a1-3)]Gal(b1-3)GlcNAc(b1-2)Man(a1-6)]Man(b1-4)GlcNAc(b1-4)GlcNAc
Method in brief: as §1

[30] = target: Fuc(a1-2)[GalNAc(a1-3)]Gal(b1-3)GlcNAc(b1-2)Man(a1-3)[Fuc(a1-2)[GalNAc(a1-3)]Gal(b1-3)GlcNAc(b1-2)Man(a1-6)]Man(b1-4)GlcNAc(b1-4)[Fuc(a1-6)]GlcNAc
Method in brief: as §1

[31] = target: Fuc(a1-2)[GalNAc(a1-3)]Gal(b1-3)GlcNAc(b1-3)GalNAc
Method in brief: as §1

[32] = target: Fuc(a1-2)[GalNAc(a1-3)]Gal(b1-3)GlcNAc(b1-6)GalNAc
Method in brief: as §1

[33] = target: Fuc(a1-2)[GalNAc(a1-3)]Gal(b1-4)Glc
Method in brief: as §1

[34] = target: Fuc(a1-2)[GalNAc(a1-3)]Gal(b1-4)GlcNAc
Method in brief: as §1

[35] = target: Fuc(a1-2)[GalNAc(a1-3)]Gal(b1-4)GlcNAc(b1-2)Man
Method in brief: as §1

[36] = target: Fuc(a1-2)[GalNAc(a1-3)]Gal(b1-4)GlcNAc(b1-2)Man(a1-3)[Fuc(a1-2)[GalNAc(a1-3)]Gal(b1-4)GlcNAc(b1-2)Man(a1-6)]Man(b1-4)GlcNAc(b1-4)GlcNAc
Method in brief: as §1

[37] = target: Fuc(a1-2)[GalNAc(a1-3)]Gal(b1-4)GlcNAc(b1-2)Man(a1-3)[Fuc(a1-2)[GalNAc(a1-3)]Gal(b1-4)GlcNAc(b1-2)Man(a1-6)]Man(b1-4)GlcNAc(b1-4)[Fuc(a1-6)]GlcNAc
Method in brief: as §1

[38] = target: Fuc(a1-2)[GalNAc(a1-3)]Gal(b1-4)GlcNAc(b1-3)Gal(b1-4)GlcNAc
Method in brief: as §1

[39] = target: Fuc(a1-2)[GalNAc(a1-3)]Gal(b1-4)GlcNAc(b1-3)Gal(b1-4)GlcNAc(b1-3)Gal(b1-4)GlcNAc
Method in brief: as §1

[40] = target: Fuc(a1-2)[GalNAc(a1-3)]Gal(b1-4)GlcNAc(b1-3)GalNAc
Method in brief: as §1

[41] = target: Fuc(a1-2)[GalNAc(a1-3)]Gal(b1-4)GlcNAc(b1-3)[Fuc(a1-2)[GalNAc(a1-3)]Gal(b1-4)GlcNAc(b1-6)]GalNAc
Method in brief: as §1

[42] = target: Fuc(a1-2)[GalNAc(a1-3)]Gal(b1-4)GlcNAc(b1-6)GalNAc
Method in brief: as §1

[43] = target: Fuc(a1-2)[GalNAc(a1-3)]Gal(b1-4)[Fuc(a1-3)]GlcNAc
Method in brief: as §1

[44] = target: Fuc(a1-2)[GalNAc(a1-3)]Gal(b1-4)[Fuc(a1-3)]GlcNAc(b1-3)GalNAc
Method in brief: as §1

[45] = target: Fuc(a1-2)[GalNAc(a1-4)]Gal(b1-4)GlcNAc
Method in brief: as §1

B1: Epa6 (Candida glabrata), Q6DTM7_CANGB (protein)
chain: MGSSHHHHHHSSGLVPRGSHMKDDYSSSLSNNNLGWTDPTEFPLGCSPNVTTPKNGLSMELYSYDYLKSGSNPCWDAAYLDPNYPRTGYKSHRLLAKVENVAGNINFYYHAPMGCTSLFDTLPQAYNYRTPLTMTNFTMLLYGYFKPKVTGYHTFTISADDLLFVNFGAGNAFDCCKRESSADDFGNYQAYAVWGSQTAKDDLTVHLDAGLYYPIRIFFNNRDNDGALSLTLKTESDPNPVIDFSDYFYSFDDTKDGCPGLVSYDTS
glycan array binding signal (z-score) [1]: -0.283 | glycan array binding signal (z-score) [2]: -0.231 | glycan array binding signal (z-score) [3]: -0.209 | glycan array binding signal (z-score) [4]: -0.272 | glycan array binding signal (z-score) [5]: 0.602 | glycan array binding signal (z-score) [6]: 0.108 | glycan array binding signal (z-score) [7]: -0.034 | glycan array binding signal (z-score) [8]: 0.317 | glycan array binding signal (z-score) [9]: 0.454 | glycan array binding signal (z-score) [10]: -0.051 | glycan array binding signal (z-score) [11]: 0.138 | glycan array binding signal (z-score) [12]: -0.074 | glycan array binding signal (z-score) [13]: 0.484 | glycan array binding signal (z-score) [14]: 1.09 | glycan array binding signal (z-score) [15]: 0.197 | glycan array binding signal (z-score) [16]: 0.627 | glycan array binding signal (z-score) [17]: -0.005 | glycan array binding signal (z-score) [18]: 0.226 | glycan array binding signal (z-score) [19]: 0.469 | glycan array binding signal (z-score) [20]: -0.287 | glycan array binding signal (z-score) [21]: -0.264 | glycan array binding signal (z-score) [22]: -0.067 | glycan array binding signal (z-score) [23]: -0.12 | glycan array binding signal (z-score) [24]: 2.64 | glycan array binding signal (z-score) [25]: -0.314 | glycan array binding signal (z-score) [26]: -0.139 | glycan array binding signal (z-score) [27]: -0.303 | glycan array binding signal (z-score) [28]: -0.294 | glycan array binding signal (z-score) [29]: -0.297 | glycan array binding signal (z-score) [30]: -0.329 | glycan array binding signal (z-score) [31]: -0.163 | glycan array binding signal (z-score) [32]: -0.273 | glycan array binding signal (z-score) [33]: -0.298 | glycan array binding signal (z-score) [34]: -0.298 | glycan array binding signal (z-score) [35]: -0.35 | glycan array binding signal (z-score) [36]: -0.336 | glycan array binding signal (z-score) [37]: -0.27 | glycan array binding signal (z-score) [38]: -0.296 | glycan array binding signal (z-score) [39]: -0.265 | glycan array binding signal (z-score) [40]: -0.306 | glycan array binding signal (z-score) [41]: -0.239 | glycan array binding signal (z-score) [42]: -0.291 | glycan array binding signal (z-score) [43]: -0.219 | glycan array binding signal (z-score) [44]: 0.422 | glycan array binding signal (z-score) [45]: -0.32
